# Assay results from PubChem BioAssay AID1345082 (National Center for Advancing Translational Sciences (NCATS), 2018).
# Screen size: about 94,000 compounds; about 4,000 (4.3%) were called active. This list was built around the results that the source calls inconclusive (neither active nor inactive); the mix of calls is not that of the screen. Calls follow the shape of the dose curve; as a rule, active = well fitted inhibition curve with a large enough effect; inconclusive = small, poorly fitted or top-dose-only effect; inactive = no such curve, though single readings can be large or run the other way. A potency beside an inconclusive call is a rough fit, not a confirmed value.
# Assay: Cytotoxic Profiling in NIH 3T3 Cell Line of Diverse Libraries Using Quantitative High-Throughput Screening; also: nearly all actives have a fitted effect of over 55% in size
# Conditions: NIH 3T3 viability, CellTiter-Glo ATP luminescence, 48-72 h; series mostly up to 96.7 µM
# Procedure, shortened: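 Cytotoxicity is measured as loss of cellular ATP: NIH 3T3 cells (400/well) are exposed to compound for 48 or 72 hr at 37 °C, then CellTiter-Glo luminescence is imaged after 10 min at room temperature.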
# Potency is read from the fitted curve at half-maximal effect; tags tell the direction and shape of the fitted curve.
row,SMILES,Potency
1,O=C(NCc1cccnc1)c1cc(-c2cnccc2Cl)c2cccn2n1,"inconclusive: 44.7 µM [inhibitor, partial curve, poor fit]"
2,COc1ccc(-c2cc(C(=O)NCCCc3ccccc3)c3cnn(C)c3n2)cc1,"inconclusive: 44.7 µM [inhibitor, partial curve, poor fit]"
3,CCOC(=O)[C@@H]1[C@@H](OC(N)=O)C(=O)N(Cc2ccccc2)C12CCN(C(=O)CC(C)C)CC2,inactive
4,CC(=O)N1CCC(N2C(=O)c3c(c(C)nn3-c3ccccc3)C2C)C1 (configuration not stated),"inconclusive: 100 µM [inhibitor, partial curve, poor fit]"
5,COc1ccc(CN2C(=O)[C@@H]3C[C@@H](O)CN3C3(CN(Cc4ccc(F)cc4)C3)C2=O)cc1,inactive
6,Cn1nc(C2CCN(C(=O)CCCc3ccccc3)CC2)c2c1CCOC2,"inconclusive: 50.1 µM [inhibitor, partial curve, poor fit]"
7,O=C(NC1CCN(CCn2nc3n(c2=O)CCCC3)C1)c1ccc2c(c1)OCO2 (configuration not stated),inactive
8,O=C(NCCc1ccccc1F)c1ccc2nnc(Cc3ccco3)n2c1,"inconclusive: 39.8 µM [inhibitor, partial curve, poor fit]"
9,CNC(=O)c1cccc(-c2cnc3[nH]cc(CC(=O)NCc4cccc(F)c4)c3c2)c1,active: 89.1 µM
10,Oc1ccc(-c2nc(C3CC3)nc3c2CCN(Cc2ccncc2)CC3)cc1,inactive
11,COCCNC(=O)C1(C)CN(Cc2ccccc2)Cc2ccc(Nc3ccccc3)nc21 (configuration not stated),"inconclusive: 39.8 µM [inhibitor, full curve]"
12,O=C(NCc1ccccc1F)C1CN(C2CCCC2)C(=O)N1 (configuration not stated),inactive
13,COCCOC1CCN(C(=O)c2cc(C)n(CCOC)c2C)CC1,inactive
14,CC(C)c1ccc(C#N)c(N2CC[C@H](N3CCOCC3)[C@H](CCCO)C2)n1,"inconclusive: 79.4 µM [inhibitor, partial curve]"
15,Cc1ccc(C(=O)N2c3ccccc3CC2c2nc(C3CC3)no2)cn1 (configuration not stated),inactive
16,CN(Cc1cccnc1)C1CCc2ccccc21 (configuration not stated),"inconclusive: 79.4 µM [inhibitor, partial curve, poor fit]"
17,Cc1cn2nc(C(=O)NCc3ccc(Cl)cc3)cc2c(N2CCCC2)n1,"inconclusive: 50.1 µM [inhibitor, partial curve, poor fit]"
18,Cc1ccc(C(=O)N(C)Cc2cccc(C(F)(F)F)c2)cc1,"inconclusive: 63.1 µM [inhibitor, partial curve, poor fit]"
19,Cc1cc(C)n(CC(=O)N2CCCC2c2nc(CCOCC3CCOCC3)no2)n1 (configuration not stated),"inconclusive: 79.4 µM [inhibitor, partial curve, poor fit]"
20,COc1cc(Cl)ccc1C(=O)N[C@@H]1CN(c2ncccn2)C[C@H]1CN(C)C,inactive
21,COc1ccccc1CN1CCc2nc(C(=O)Nc3cccc(C(F)(F)F)c3)oc2CC1,active: 28.2 µM

row,SMILES,Potency
1,OC1(c2nc(Nc3ccc(Oc4ccccc4)cc3)n[nH]2)CCOCC1,"inconclusive: 79.4 µM [inhibitor, partial curve]"
2,COc1ccc(NC(=O)[C@@H]2C[C@H](c3ccc(F)cc3)N(Cc3csc(C)n3)C2)cc1,"inconclusive: 79.4 µM [inhibitor, partial curve]"
3,O=C(C[C@@H]1CCNC[C@@H]1Cc1cc(-c2ccccc2)on1)NCc1cccs1,"inconclusive: 112 µM [inhibitor, partial curve, poor fit]"
4,CN(C)c1ccc(CN2CCNc3cc(Nc4ccccc4)ncc3C2)cc1,active: 56.2 µM
5,Cc1cc(C)c2[nH]c(C(=O)NCc3nc(-c4ccccn4)no3)c(C)c2c1,"inconclusive: 50.1 µM [inhibitor, partial curve, poor fit]"
6,O=C(NC1CC1)c1ccc2nc(-c3ccncc3)oc2c1,"inconclusive: 35.5 µM [inhibitor, partial curve, poor fit]"
7,O=C(NC1CCN(c2nc3ncccc3o2)C1)c1ccccc1Cl (configuration not stated),inactive
8,CCCNC(=O)N1CC(Oc2cccc(-c3nc(-c4ccccc4)no3)c2)C1,inactive
9,Cn1cnc2cc(-c3ccccc3)cc(C(=O)NCc3cccnc3)c21,"inconclusive: 50.1 µM [inhibitor, partial curve]"
10,COc1cccc(-c2nc3ccc(-c4ccc5c(c4)OCO5)cc3o2)c1OC,"inconclusive: 44.7 µM [inhibitor, partial curve, poor fit]"
11,CC(C)(C)c1ccc(C(=O)Nc2nc3c(s2)C[C@@H]2[C@](C)(CO)[C@H](O)CC[C@@]2(C)[C@@H]3CC(=O)NCc2cccs2)cc1,"inconclusive: 56.2 µM [inhibitor, partial curve, poor fit]"
12,COc1ccc(S(=O)(=O)N2CCC(Cc3nncn3C)CC2)cc1,inactive
13,O=c1[nH]c(C2CCCN(Cc3ccsc3)C2)nn1-c1ccc(Cl)cc1 (configuration not stated),"inconclusive: 50.1 µM [inhibitor, partial curve, poor fit]"
14,CCN(CC)C(=O)N1CC(Oc2ccccc2-c2nc(-c3cnccn3)no2)C1,inactive
15,COc1cc(NC(=O)N2C[C@@H]3C[C@H](C2)c2ccc(NC(=O)c4ccc(F)cc4)c(=O)n2C3)cc(OC)c1,"inconclusive: 39.8 µM [inhibitor, single point]"
16,O=C(NCCc1ccccc1)C1CC(c2ccccc2)CN(C(=O)c2ccccc2F)C1 (configuration not stated),"inconclusive: 50.1 µM [inhibitor, partial curve, poor fit]"
17,Cc1cc(C)cc(NC(=O)c2ccc3c(c2)N(C)C2CCCCCN2C3=O)c1 (configuration not stated),inactive
18,CC(C)(C)OC(=O)N1CC(N2CCc3ccccc32)C1,"inconclusive: 89.1 µM [inhibitor, partial curve, poor fit]"
19,O=C1CCCCCN1C1CCN(Cc2cccc3ccccc23)CC1,active: 79.4 µM
20,Cc1ccc(Nc2ccnc(N3CCCC3C(=O)NCC(F)F)n2)cc1 (configuration not stated),"inconclusive: 8.91 µM [inhibitor, full curve]"
21,CCOC(=O)[C@@H]1CN(C(=O)c2ccc(F)cc2)[C@H]2c3ccccc3O[C@@H]12,"inconclusive: 50.1 µM [inhibitor, partial curve, poor fit]"
